The supplement of paper PMC12217912
This is one part of the list. Sequences were assembled here from the parent chain. Values near 0.05 are background.

B1: TEV protease; numbered along this chain (parent)
chain: MGESLFKGPRDYNPISSSICHLTNESDGHTTSLYGIGFGPFIITNKHLFRRNNGTLVVQSLHGVFKVKDTTTLQQHLVDGRDMIIIRMPKDFPPFPQKLKFREPQREERICLVTTNFQTKSMSSMVSDTSCTFPSGDGIFWKHWIQTKDGQCGSPLVSTRDGFIVGIHSASNFTNTNNYFTSVPKNFMELLTNQEAQQWVSGWRLNADSVLWGGHKVFMVKPEEPFQPVKEATQL

Variants of: B1
Experiment: raw area under fraction-flipped curve 0-4 h after induction (AUC4h, not background-subtracted), DNA-recorder readout of cleavage of the substrate (dimensionless); higher = more cleavage of the substrate by the protease variant
Details: temperature: 34 °C; time window: 0-4 h after rhamnose induction
Procedure: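 In vivo DNA recorder in E. coli TOP10(DE3) ΔrhaA at 34 °C. Each TEVp single-site mutant (parent TEVp 0) is paired with a single-site variant of the 7-mer TEVs (canonical ENLYFQ|S). The substrate sits between flexible linkers in a Bxb1-sfGFP-TEVs-SsrA fusion, so cleavage stabilises Bxb1 and speeds flipping of a recombination array, read by NGS. The value is the raw area under the fraction-flipped curve over 0-4 h after rhamnose induction (AUC4h), with ≥20 reads per time point. It is not background-subtracted; inactive controls average about 0.047.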
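Note: Bxb1 expression induced with 0.2% (w/v) L-rhamnose at OD600 near 0.5, cultures sampled hourly, flipped fraction per protease–substrate barcode pair counted by paired-end Illumina sequencing.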

Variant | area with substrate ANLYFQS | area with substrate DNLYFQS | area with substrate FNLYFQS | area with substrate GNLYFQS | area with substrate HNLYFQS | area with substrate INLYFQS | area with substrate PNLYFQS | area with substrate SNLYFQS | area with substrate TNLYFQS | area with substrate WNLYFQS | area with substrate YNLYFQS | area with substrate CNLYFQS | area with substrate KNLYFQS | area with substrate MNLYFQS | area with substrate NNLYFQS | area with substrate QNLYFQS | area with substrate RNLYFQS | area with substrate LNLYFQS | area with substrate VNLYFQS
MGESLFKGPRDYNPISSSICHLTNESDGHTTSLYGIGFGPFIITNKHLFRRNNGTLVVQSLHGVFKVKDTTTLQQHLVDGRDMIIIRMPKDFPPFPQKLKFREPQRNERICLVTTNFQTKSMSSMVSDTSCTFPSGDGIFWKHWIQTKDGQCGSPLVSTRDGFIVGIHSASNFTNTNNYFTSVPKNFMELLTNQEAQQWVSGWRLNADSVLWGGHKVFMVKPEEPFQPVKEATQL [E107N] | 0.0645 | 0.0708 | 0.0595 | 0.0865 | 0.0548 | 0.0548 | 0.0649 | 0.0773 | 0.0641 | 0.0638 | 0.0585 | – | – | – | – | – | – | – | –
MGESLFKGPRDYNPISSSICHLTNESDGHTTSLYGIGFGPFIITNKHLFRRNNGTLVVQSLHGVFKVKDTTTLQQHLVDGRDMIIIRMPKDFPPFPQKLKFREPQREERICLVTTNFQTKSMSSMVSDTSCTFPSGDGIFWKHWIQTKDGQCGSPLVSTRDGFIVGIHSASNFTNTNNYFTSVPFNFMELLTNQEAQQWVSGWRLNADSVLWGGHKVFMVKPEEPFQPVKEATQL [K185F] | 0.0912 | – | 0.0744 | 0.0383 | 0.0633 | 0.0737 | 0.0665 | 0.0741 | – | 0.0661 | 0.0457 | 0.0669 | 0.068 | 0.0872 | 0.0704 | 0.0821 | 0.062 | – | –
MGESLFKGPRDYNPISSSICHLTNESDGHTTSLYGIGFGPFIITNKHLFRRNNGTLVVQSLHGVFKVKDTTTLQQHLVDGRDMIIIRMPKDFPPFPQELKFREPQREERICLVTTNFQTKSMSSMVSDTSCTFPSGDGIFWKHWIQTKDGQCGSPLVSTRDGFIVGIHSASNFTNTNNYFTSVPKNFMELLTNQEAQQWVSGWRLNADSVLWGGHKVFMVKPEEPFQPVKEATQL [K98E] | 0.0779 | – | 0.0454 | 0.071 | – | 0.0549 | – | 0.056 | – | – | – | 0.0873 | – | – | – | 0.0512 | – | 0.0612 | –
MGESLFKGPRDYNPISSSICHLTNESDGHTTSLYGIGFGPFIPTNKHLFRRNNGTLVVQSLHGVFKVKDTTTLQQHLVDGRDMIIIRMPKDFPPFPQKLKFREPQREERICLVTTNFQTKSMSSMVSDTSCTFPSGDGIFWKHWIQTKDGQCGSPLVSTRDGFIVGIHSASNFTNTNNYFTSVPKNFMELLTNQEAQQWVSGWRLNADSVLWGGHKVFMVKPEEPFQPVKEATQL [I43P] | 0.039 | 0.0768 | 0.0399 | 0.0311 | 0.0479 | 0.0459 | 0.0486 | 0.0475 | 0.0449 | 0.0478 | 0.043 | – | 0.0402 | 0.0434 | 0.0457 | – | – | – | 0.0459
MGESLFKGPRDYNPISSSICHLTNESDGHTTSLYGIGFGPFIITNKHLFRRNNGTLVVQQLHGVFKVKDTTTLQQHLVDGRDMIIIRMPKDFPPFPQKLKFREPQREERICLVTTNFQTKSMSSMVSDTSCTFPSGDGIFWKHWIQTKDGQCGSPLVSTRDGFIVGIHSASNFTNTNNYFTSVPKNFMELLTNQEAQQWVSGWRLNADSVLWGGHKVFMVKPEEPFQPVKEATQL [S60Q] | 0.0644 | 0.0616 | – | – | – | 0.0637 | 0.0739 | – | 0.0699 | 0.0525 | 0.0613 | – | – | – | – | – | – | – | –
MGESLFKGPRDYAPISSSICHLTNESDGHTTSLYGIGFGPFIITNKHLFRRNNGTLVVQSLHGVFKVKDTTTLQQHLVDGRDMIIIRMPKDFPPFPQKLKFREPQREERICLVTTNFQTKSMSSMVSDTSCTFPSGDGIFWKHWIQTKDGQCGSPLVSTRDGFIVGIHSASNFTNTNNYFTSVPKNFMELLTNQEAQQWVSGWRLNADSVLWGGHKVFMVKPEEPFQPVKEATQL [N13A] | 0.0654 | – | 0.0632 | 0.0669 | 0.0537 | – | 0.0707 | 0.0541 | 0.0717 | 0.062 | 0.0775 | 0.0735 | 0.0654 | 0.0602 | 0.0738 | 0.0676 | – | 0.0752 | 0.0705
MGESLFKGPRDYNPISSSICHLTNESDGHTTSLYGIGFGPFIITNKHLFRRNNGTLVVQSLHGVFKVKDTTTLQQHLVDGRDMIIIRMPKDFPPFPQKLKFREPQREERICLVTTNFQTKSMSSMVSDTSCTFPSGDGIFWKHWIQTKDGQCGSPLVSTRDGFIVGIHSASNFTNTNNYFTSVPKNHMELLTNQEAQQWVSGWRLNADSVLWGGHKVFMVKPEEPFQPVKEATQL [F187H] | 0.0227 | 0.0517 | – | 0.074 | 0.0471 | 0.0381 | 0.06 | 0.0608 | 0.0666 | 0.0507 | 0.0463 | – | 0.064 | 0.0567 | 0.0499 | 0.0659 | – | 0.0479 | 0.0596
MGESLFKGPRDYNPISSSICHLTNESDGHTTSLYGIGFGPFIITNKHLFRRNNGTLVVQSLHGVFKVKDTTTLQQHLVDGRDMIIERMPKDFPPFPQKLKFREPQREERICLVTTNFQTKSMSSMVSDTSCTFPSGDGIFWKHWIQTKDGQCGSPLVSTRDGFIVGIHSASNFTNTNNYFTSVPKNFMELLTNQEAQQWVSGWRLNADSVLWGGHKVFMVKPEEPFQPVKEATQL [I86E] | 0.0367 | – | 0.0274 | 0.0438 | 0.0301 | 0.0288 | – | – | – | – | 0.0229 | 0.0352 | 0.0564 | 0.0227 | 0.04 | – | – | 0.031 | –
MGESLFKGPRDYNPISSSICHLTNESDGHTTSLYGIGFGPFIITNKHLFRRNNGTLVVQSLHGVFKVKDTTTLQQHLVDGRDMIIIRMPKDFPPFPQKLKFREPQREERICLVTTNFQTKSMSSMVSDTSCTFPSGDGIFWKHWIQTKDGQCGSPLVSTRDGFIVGIHSASNFTNTNNYFTAVPKNFMELLTNQEAQQWVSGWRLNADSVLWGGHKVFMVKPEEPFQPVKEATQL [S182A] | 0.0718 | – | – | – | 0.062 | – | – | 0.078 | 0.0632 | – | – | 0.0838 | – | – | 0.0632 | – | – | – | –
MGESLFKGPRDYNPISSSICHLTNESDGHTTSLYGIGFGPFIITNKHLFRRNNGTLVVQSLHGVFKVKDTTTLQQHLVDGRDMIIIRMPKDFPPFPQKLKFREPQREERICLVTTNKQTKSMSSMVSDTSCTFPSGDGIFWKHWIQTKDGQCGSPLVSTRDGFIVGIHSASNFTNTNNYFTSVPKNFMELLTNQEAQQWVSGWRLNADSVLWGGHKVFMVKPEEPFQPVKEATQL [F117K] | 0.005 | – | 0.059 | – | 0.0774 | – | 0.0654 | 0.057 | – | 0.0579 | – | 0.0854 | – | – | 0.0696 | – | – | 0.0679 | –
